Out of some 360,000 compounds screened, about 25,000 (6.9%) were called active. Inconclusive results, whose numbers are uncertain, are shown with a selection of clear calls. Calls follow the shape of the dose curve; as a rule, active = well fitted inhibition curve with a large enough effect; inconclusive = small, poorly fitted or top-dose-only effect; inactive = flat fitted curve, though single readings scatter. Where the call is inconclusive, the potency comes from a doubtful curve fit.
Target: Luciferin 4-monooxygenase (Photinus pyralis) (UniProt P08659)
Assay: qHTS profiling assay for firefly luciferase inhibitor/activator using purifed enzyme and Km concentrations of substrates (counterscreen for miR-21 project); also: nearly all actives have a fitted effect of over 55% in size;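 as to activity change, negative = inhibition: plate controls were vehicle for no effect and reference inhibitor for full effect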
Conditions: purified FLuc, luminescence inhibition; series mostly up to 57.5 µM; activity change, negative = inhibition: at the top concentration
Procedure, shortened: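 Purified P. pyralis luciferase (10nM final) with 10uM D-luciferin and 10uM ATP (Km levels) in 50mM Tris acetate pH 7.5, 10mM Mg acetate, 0.01% Tween-20, 0.05% BSA; qHTS 6-point titration, ~60 µM downward; luminescence read.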
Potency is read from the fitted curve at half-maximal effect; tags tell the direction and shape of the fitted curve.

Sequence of UniProt P08659 (P08659 whole entry, looked up): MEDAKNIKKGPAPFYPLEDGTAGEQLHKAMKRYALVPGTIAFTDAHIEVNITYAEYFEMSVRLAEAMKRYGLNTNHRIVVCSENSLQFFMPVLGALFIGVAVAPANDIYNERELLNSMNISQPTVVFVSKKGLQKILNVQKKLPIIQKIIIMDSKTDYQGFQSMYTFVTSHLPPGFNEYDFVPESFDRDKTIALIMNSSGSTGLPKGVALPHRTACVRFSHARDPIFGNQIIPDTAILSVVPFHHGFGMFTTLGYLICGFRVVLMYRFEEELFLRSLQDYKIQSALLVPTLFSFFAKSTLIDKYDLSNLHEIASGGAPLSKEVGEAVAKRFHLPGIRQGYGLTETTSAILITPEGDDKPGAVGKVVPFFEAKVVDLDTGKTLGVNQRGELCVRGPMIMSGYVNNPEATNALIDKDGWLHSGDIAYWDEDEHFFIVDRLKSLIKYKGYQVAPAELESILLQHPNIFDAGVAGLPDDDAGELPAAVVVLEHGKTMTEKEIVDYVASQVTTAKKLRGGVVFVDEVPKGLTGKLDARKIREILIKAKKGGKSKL

Row | SMILES | Potency | activity change, negative = inhibition
1 | CC(C)CC(NC(=O)C1CCC(C)CC1)C(=O)Nc1ccccn1 (centres undefined) | inconclusive: 21.3 µM [inhibitor, single point] | –
2 | Nc1cccc(Nc2ccccc2)c1 | – | inactive: -12.7%
3 | COc1ccc(-c2noc(-c3ccc(NC(C)c4ccccc4)c([N+](=O)[O-])c3)n2)cc1OC (centres undefined) | active: 10.7 µM | –
4 | CCc1ccc(-c2cc(C)no2)cc1S(=O)(=O)Nc1ccc(Cl)cc1 | inconclusive: 19 µM [inhibitor, partial curve, poor fit] | –
5 | CC(C)c1ccc(NC(=O)c2ccc(Br)o2)cc1 | active: 2.13 µM | –
6 | Cc1cc2c(NC(=O)Nc3ccc(C(F)(F)F)cc3)cccc2nn1 | inconclusive: 16.9 µM [inhibitor, partial curve] | –
7 | COc1cc(NC(=O)c2ccc3c(c2)OCO3)ccc1NC(=O)C(C)C | active: 15.1 µM | –
8 | Cc1sc(N)nc1C12CC3CC(CC(C3)C1)C2 | inconclusive: 26.9 µM [inhibitor, partial curve, poor fit] | –
9 | CC(C)CNC(=O)c1cccc(NC(=O)COc2ccc([N+](=O)[O-])cc2)c1 | inconclusive: 15.1 µM [inhibitor, partial curve] | –
10 | Nc1c(C(O)(C(F)(F)F)C(F)(F)F)cc(C(O)(C(F)(F)F)C(F)(F)F)c2ccccc12 | – | inactive: -3.4%
11 | COc1ccc(-c2noc(CN(C)Cc3ccccc3)n2)c(OC)c1OC | inconclusive: 26.9 µM [inhibitor, single point] | –
12 | COc1cccc(-c2cc(C(=O)N3N=C(C)CC3(O)C(F)F)c3ccccc3n2)c1 (centres undefined) | inconclusive: 13.5 µM [inhibitor, partial curve] | –
13 | Cc1ccc(N2C(=O)c3ccccc3C2Nc2ccccc2F)nc1 (centres undefined) | – | inactive: -0.484%
14 | CN(C)c1ccc(/C=C(\NC(=O)c2ccccc2)C(=O)NCc2cccnc2)cc1 | active: 10.7 µM | –
15 | CCCn1c(=O)c(C(=O)Nc2ccccc2C)c(O)c2ccccc21 | inconclusive: 37.9 µM [inhibitor, single point] | –
16 | Cc1cc(C)n2c(Br)c(CSc3nc4ccccc4s3)nc2n1 | inconclusive: 26.9 µM [inhibitor, single point] | –
17 | O=C(NCc1ccccc1)C(=O)NCC(c1cccnc1)N1CCN(c2ccccc2)CC1 (centres undefined) | inconclusive: 19 µM [inhibitor, partial curve] | –
18 | CCC(SC1=Nc2ccccc2C2=NC(CC(C)C)C(=O)N12)C(=O)Nc1ccc2c(c1)OCO2 (centres undefined) | inconclusive: 26.9 µM [inhibitor, single point] | –
19 | O=c1[nH]c(/C=C/c2ccc3c(c2)OCO3)c([N+](=O)[O-])c(=O)[nH]1 | inconclusive: 21.3 µM [inhibitor, single point] | –

— PubChem BioAssay AID588342 (National Center for Advancing Translational Sciences (NCATS), 2011)
